From patent US10973251B1, “Nutritional treatment for cancer” (The Board of Trustees of the Leland Stanford Junior …, priority 2015, dated 2021)
For some of these results: The name of at least one read-out is uncertain. For some of these results: At least one compound was matched to its structure with a doubt left.

Key:
[1] = system: U937; test: relative growth in dropout media (XTT / CellTiter-Glo); format: cell-based, human; conditions: three days
Description: (§1) To establish the screening assay for the nutritional weakness of cancer cells, 5 human blood cancer cell lines, 4 human lung cancer cell lines, 1 human colon cancer cell line, 1 human liver cancer cell line, 5 human breast cancer cell lines, and 3 human prostate cancer cell lines were used (Table 1). All 19 cell lines were cultured in reconstituted complementary RPM11640 based media R-comp (Table 2) for more than 10 days before screening assays.
(§2) To test for nutritional weaknesses of cancer cell lines or primary cancer cells, each individual non-essential amino acid was dropped out from the R-comp media (Table 2). Multiple amino acid dropout media was used to test combinatorial effects. Prior to the experiments, cells were first acclimated in R-comp media, and then harvested and washed in EBSS solution. The cell density was adjusted to 1-3×10^5 cells/ml before adding to equal volumes of 2× dropout media plus 2× R-comp (positive control) in a 96-well plate. The plates were then placed in an incubator set at 37° C. with a 5% CO2 supply. Five technical replicates were used for each medium treatment. For each cell line, at least three biological replicates were performed with 2 time-points (day 1 and day 3).
(§3) Cell growth was analyzed with two cell viability methods (XTT and CellTiter-Glo-based assays). In the XTT-based assay, cell growth is measured by absorbance at 450 nm after adding the XTT reagent to each culture and incubating under the same culture conditions for 2 hours according to the manufacturer's instructions (ThermoFisher X6493). Absorption at 690 nm was also measured as background and subtracted from absorption at 450 nm. In the CellTiter-Glo-based assay (Promega, G7572), cell growth is measured by luminescence with a dwelling time of 200 milliseconds on a Tecan plate reader.
(§4) The relative growth is calculated with the following equation: Growth %=(readingdropout−average(readingsblank))/(average(readingsR-comp)−average(readingsblank))×100%

[2] = system: HepG2; test: as above; format: cell-based, human; conditions: three days
Description: as §1, §2, §3, §4

[3] = system: VCaP; test: as above; format: cell-based, human; conditions: three days
Description: as §1, §2, §3, §4

[4] = system: MDA-MB-231; test: as above; format: cell-based, human; conditions: three days
Description: as §1, §2, §3, §4

[5] = system: PC-3; test: as above; format: cell-based, human; conditions: three days
Description: as §1, §2, §3, §4

[6] = system: HCT116; test: as above; format: cell-based, human; conditions: three days
Description: as §1, §2, §3, §4

[7] = system: HL60; test: as above; format: cell-based, human; conditions: three days
Description: as §1, §2, §3, §4

[8] = system: GA10; test: as above; format: cell-based, human; conditions: three days
Description: as §1, §2, §3, §4

[9] = system: MDA-MB-453; test: as above; format: cell-based, human; conditions: three days
Description: as §1, §2, §3, §4

[10] = system: HCC70; test: as above; format: cell-based, human; conditions: three days
Description: as §1, §2, §3, §4

[11] = system: HCC1599; test: as above; format: cell-based, human; conditions: three days
Description: as §1, §2, §3, §4

[12] = system: H1437; test: as above; format: cell-based, human; conditions: three days
Description: as §1, §2, §3, §4

[13] = system: Jurkat; test: as above; format: cell-based, human; conditions: three days
Description: as §1, §2, §3, §4

[14] = system: C4-28; test: as above; format: cell-based, human; conditions: three days
Description: as §1, §2, §3, §4

[15] = mice; in combination; Lauterburg et al. (1994); cited from earlier work
[16] = —Cys, +Cys 0.01x (5x Met), CellTiter-Glo
[17] = —Cys, +Cys 0.02x (5x Met), CellTiter-Glo
[18] = —Cys, +Cys 0.05x (5x Met), CellTiter-Glo
[19] = —Cys, +Cys 0.1x (5x Met), CellTiter-Glo
[20] = —Cys, +Cys 0.5x (5x Met), CellTiter-Glo
[21] = —Cys (5x Met), vitamin supplementation 50x, Cell-Titer-Glo
[22] = MDA-MB-231, —Cys (5x Met), vitamin supplementation 50x, Cell-Titer-Glo

## N[C@@H](CSSC[C@H](N)C(=O)O)C(=O)O [+Cys (5x Met), cystine]
[1]; [16]
  relative growth: 0.0%
[1]; [17]
  relative growth: 0.0%
[1]; [18]
  relative growth: 0.1%
[1]; [19]
  relative growth: 0.2%
[1]; [20]
  relative growth: 104.4%
[2]; [16]
  relative growth: 4.2%
[2]; [17]
  relative growth: 3.6%
[2]; [18]
  relative growth: 3.3%
[2]; [19]
  relative growth: 3.3%
[2]; [20]
  relative growth: 92.0%
[3]; [16]
  relative growth: 0.6%
[3]; [17]
  relative growth: 0.6%
[3]; [18]
  relative growth: 0.7%
[3]; [19]
  relative growth: 1.4%
[3]; [20]
  relative growth: 87.7%
[4]; MDA-M8-231, —Cys, +Cys 0.01x (5x Met), CellTiter-Glo
  relative growth: 0.3%
[4]; MDA-M8-231, —Cys, +Cys 0.02x (5x Met), CellTiter-Glo
  relative growth: 0.3%
[4]; MDA-M8-231, —Cys, +Cys 0.05x (5x Met), CellTiter-Glo
  relative growth: 0.4%
[4]; MDA-M8-231, —Cys, +Cys 0.1x (5x Met), CellTiter-Glo
  relative growth: 0.5%
[4]; MDA-M8-231, —Cys, +Cys 0.5x (5x Met), CellTiter-Glo
  relative growth: 80.4%
[5]; [16]
  relative growth: 1.5%
[5]; [17]
  relative growth: 2.8%
[5]; [18]
  relative growth: 3.8%
[5]; [19]
  relative growth: 12.0%
[5]; [20]
  relative growth: 76.6%
[6]; [16]
  relative growth: 77.7%
[6]; [17]
  relative growth: 80.2%
[6]; [18]
  relative growth: 101.8%
[6]; [19]
  relative growth: 134.8%
[6]; [20]
  relative growth: 93.6%
[7]; [16]
  relative growth: 0.8%
[7]; [17]
  relative growth: 1.6%
[7]; [18]
  relative growth: 4.3%
[7]; [19]
  relative growth: 12.1%
[7]; [20]
  relative growth: 107.6%
[8]; [16]
  relative growth: 18.4%
[8]; [17]
  relative growth: 20.5%
[8]; [18]
  relative growth: 19.5%
[8]; [19]
  relative growth: 18.4%
[8]; [20]
  relative growth: 12.0%
[9]; [16]
  relative growth: 82.4%
[9]; [17]
  relative growth: 79.9%
[9]; [18]
  relative growth: 91.6%
[9]; [19]
  relative growth: 91.5%
[9]; [20]
  relative growth: 102.0%
[10]; [16]
  relative growth: 5.4%
[10]; [17]
  relative growth: 6.0%
[10]; [18]
  relative growth: 8.8%
[10]; [19]
  relative growth: 24.5%
[10]; [20]
  relative growth: 88.5%
[11]; [16]
  relative growth: 17.1%
[11]; [17]
  relative growth: 16.5%
[11]; [18]
  relative growth: 27.1%
[11]; [19]
  relative growth: 40.0%
[11]; [20]
  relative growth: 85.2%
[12]; [16]
  relative growth: 0.6%
[12]; [17]
  relative growth: 0.4%
[12]; [18]
  relative growth: 0.7%
[12]; [19]
  relative growth: 3.2%
[12]; [20]
  relative growth: 93.8%
[13]; [16]
  relative growth: 0.4%
[13]; [17]
  relative growth: 0.4%
[13]; [18]
  relative growth: 0.4%
[13]; [19]
  relative growth: 0.4%
[13]; [20]
  relative growth: 93.3%
[14]; [16]
  relative growth: 0.2%
[14]; [17]
  relative growth: 0.3%
[14]; [18]
  relative growth: 0.3%
[14]; [19]
  relative growth: 1.1%
[14]; [20]
  relative growth: 96.5%

## Cc1cc2nc3c(=O)[nH]c(=O)nc-3n(C[C@H](O)[C@H](O)[C@H](O)CO)c2cc1C [B2, riboflavin]
[1]; [21]
  relative growth: 0.0%
[2]; [21]
  relative growth: 1.5%
[3]; [21]
  relative growth: 0.1%
[4]; [22]
  relative growth: 0.2%
[5]; [21]
  relative growth: 0.3%
[6]; [21]
  relative growth: 0.6%
[7]; [21]
  relative growth: 0.0%
[8]; [21]
  relative growth: 8.1%
[9]; [21]
  relative growth: 45.1%
[10]; [21]
  relative growth: 1.1%
[11]; [21]
  relative growth: 4.1%
[12]; [21]
  relative growth: 0.8%
[13]; [21]
  relative growth: 0.3%
[14]; [21]
  relative growth: 0.2%

## NC(=O)c1cccnc1 [B3, niacinamide]
[1]; [21]
  relative growth: 0.0%
[2]; [21]
  relative growth: 1.8%
[3]; [21]
  relative growth: 0.1%
[4]; [22]
  relative growth: 0.2%
[5]; [21]
  relative growth: 0.0%
[6]; [21]
  relative growth: 52.8%
[7]; [21]
  relative growth: 0.2%
[8]; [21]
  relative growth: 3.1%
[9]; [21]
  relative growth: 96.0%
[10]; [21]
  relative growth: 1.5%
[11]; [21]
  relative growth: 13.2%
[12]; [21]
  relative growth: 0.5%
[13]; [21]
  relative growth: 0.3%
[14]; [21]
  relative growth: 0.1%

## Cc1ncc(CO)c(CO)c1O [B6, pyridoxine]
[1]; [21]
  relative growth: 0.0%
[2]; [21]
  relative growth: 0.8%
[3]; [21]
  relative growth: 0.1%
[4]; [22]
  relative growth: 0.2%
[5]; [21]
  relative growth: 0.2%
[6]; [21]
  relative growth: 47.5%
[7]; [21]
  relative growth: 0.0%
[8]; [21]
  relative growth: 3.6%
[9]; [21]
  relative growth: 70.7%
[10]; [21]
  relative growth: 0.3%
[11]; [21]
  relative growth: 2.9%
[12]; [21]
  relative growth: 0.4%
[13]; [21]
  relative growth: 0.3%
[14]; [21]
  relative growth: 0.2%

## O=C(O)CCCC[C@@H]1SC[C@@H]2NC(=O)N[C@@H]21 [B7, biotin]
[1]; [21]
  relative growth: 0.0%
[2]; [21]
  relative growth: 1.1%
[3]; [21]
  relative growth: 0.2%
[4]; [22]
  relative growth: 0.2%
[5]; [21]
  relative growth: 1.2%
[6]; [21]
  relative growth: 27.5%
[7]; [21]
  relative growth: 0.0%
[8]; [21]
  relative growth: 3.8%
[9]; [21]
  relative growth: 91.6%
[10]; [21]
  relative growth: 1.2%
[11]; [21]
  relative growth: 6.7%
[12]; [21]
  relative growth: 0.4%
[13]; [21]
  relative growth: 0.3%
[14]; [21]
  relative growth: 0.1%

## O=S(=O)(O)CCS [mesna, Mercaptoethane sulfonate]
[15]
  depletion of circulating sulfur-containing metabolites: deplete circulating sulfate-containing methionine, cystine, and glutathione in mice
